Experimental data taken from PubChem BioAssay AID624417 (National Center for Advancing Translational Sciences (NCATS), 2012).
Among all 410,000 compounds or so, about 6,400 (1.6%) were called active. The shares of active, inactive and inconclusive entries below differ from those in the screen. Calls follow the shape of the dose curve; as a rule, active = well fitted inhibition curve with a large enough effect; inconclusive = small, poorly fitted or top-dose-only effect; inactive = no such curve, though single readings can be large or run the other way. Potencies of inconclusive entries are left out as doubtful fits.

Target: Glucagon-like peptide 1 receptor (Homo sapiens) (UniProt P43220)
Chain of UniProt P43220 (P43220 whole entry, looked up): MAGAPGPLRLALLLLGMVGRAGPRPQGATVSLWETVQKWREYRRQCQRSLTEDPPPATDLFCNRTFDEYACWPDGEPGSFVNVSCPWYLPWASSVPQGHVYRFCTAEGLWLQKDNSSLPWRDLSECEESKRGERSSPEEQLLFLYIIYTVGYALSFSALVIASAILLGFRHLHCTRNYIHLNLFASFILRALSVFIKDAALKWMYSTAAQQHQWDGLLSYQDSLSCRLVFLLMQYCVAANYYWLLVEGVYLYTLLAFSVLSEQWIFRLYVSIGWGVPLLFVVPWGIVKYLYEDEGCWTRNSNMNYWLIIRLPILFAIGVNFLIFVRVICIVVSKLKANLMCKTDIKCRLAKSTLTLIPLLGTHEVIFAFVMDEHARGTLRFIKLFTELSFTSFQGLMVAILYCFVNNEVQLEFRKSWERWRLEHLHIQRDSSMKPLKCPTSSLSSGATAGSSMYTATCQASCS
Test: qHTS of GLP-1 Receptor Inverse Agonists (Inhibition Mode); also: nearly all actives have a fitted effect of over 55% in size
Conditions: HEK293 GLP-1R CRE-luciferase, luminescence, 24 h, GLP-1R form is constitutively active; activity change, negative = inhibition: at 38.3 µM (top of the series) unless noted
Method in brief: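 Inverse agonists were sought by their lowering of basal cAMP reporter luciferase output in HEK293 cells stably carrying constitutively active human GLP-1R, after 24 h compound treatment.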
% is scaled to controls: 0 for no effect and ±100 for the full control effect; potency is read from the fitted curve at half-maximal effect; tags tell the direction and shape of the fitted curve.

For `Nc1nc(-c2ccc3ccccc3c2)c(C2(O)C(=O)Nc3c(Br)cc(F)cc32)s1` (stereo unspecified), which Potency is on record?
Its Potency is inconclusive [inhibitor, single point].

`Cc1ccc(CCNC(=O)c2ccc(CS(=O)(=O)Cc3ccc(Cl)cc3)o2)cc1` was tested. Which Potency did it give?
Its Potency is inconclusive [inhibitor, partial curve, poor fit].

`CC(=O)c1c(C)nc2ccc(Br)cc2c1-c1ccccc1` was tested. Which Potency did it give?
Its Potency is inconclusive [inhibitor, single point].

`O=C(NCC1CCCO1)c1nn2c(C(F)(F)F)cc(-c3cc(Br)cs3)nc2c1Br` (stereo unspecified) was tested. Which “activity change, negative = inhibition” value did it give?
Its value is inactive: 2.71%.

How did the Potency turn out when `COc1cc(Cl)c(C)cc1NC(=O)Cn1cnc2sc(C)c(S(=O)(=O)N3CCCCC3)c2c1=O` was run?
Its Potency is inconclusive [inhibitor, single point].

How did the Potency turn out when `CC(=O)Nc1ccc(-c2ccnc3c2CC(C(=O)Nc2cccc(Oc4ccccc4)c2)O3)cc1` (stereo unspecified) was run?
Its Potency is inconclusive [inhibitor, partial curve, poor fit].

For `Clc1ccc(Nc2ncnc3ccc(Br)cc23)cc1`, which Potency is on record?
The Potency was inconclusive [inhibitor, partial curve, poor fit].

`CCCC(c1nnnn1CS(=O)(=O)c1ccc(C)cc1)N1CCN(C2CCCC2)CC1` (stereo unspecified) was tested. Which Potency did it give?
The Potency was inconclusive [inhibitor, single point].

`CC1CCc2[nH]c3ccc(C(=O)N(C)CC(=O)Nc4cccc(F)c4)cc3c2C1` (stereo unspecified) was tested. Which Potency did it give?
Its Potency is inconclusive [inhibitor, partial curve, poor fit].

How did the Potency turn out when `CCCn1c(SCC#N)nc2c(c1=O)C1(CCCC1)Cc1ccccc1-2` was run?
Its Potency is inconclusive [inhibitor, partial curve, poor fit].

For `Cc1ccc(-n2c(C)cc(/C=C(\C#N)C(=O)NCC3CCCO3)c2C)cc1` (stereo unspecified), which Potency is on record?
Its Potency is inconclusive [inhibitor, partial curve, poor fit].

`c1ccc(-c2nc(NCc3ccco3)c3ccccc3n2)nc1` was tested. Which Potency did it give?
Its Potency is inconclusive [inhibitor, full curve, poor fit].

For `CC1(C)CN(c2ccc(Br)cc2)C(=O)[C@H]1CC(=O)Nc1ccccc1`, which Potency is on record?
Its Potency is inconclusive [inhibitor, single point].

Which Potency does the source give for `COc1ccc(-c2nc(CN3CCN(c4ccccc4OC)CC3)c(C)o2)cc1` here?
Its Potency is inconclusive [inhibitor, single point].

How did the Potency turn out when `O=C(Cn1ccc2cc(S(=O)(=O)N3CCCCCC3)ccc21)NCCc1ccccc1Cl` was run?
The Potency was inconclusive [inhibitor, single point].

`COc1cccc(NC(=O)Cn2c(=O)c3cccn3c3ccc(F)cc32)c1` was tested. Which “activity change, negative = inhibition” value did it give?
Its value is inactive: 20.2%.

How did the “activity change, negative = inhibition” value turn out when `O=S(=O)(c1ccccc1)n1nc(-c2ccc(Cl)cc2)nc1NCc1ccc(F)cc1` was run?
The value was inactive: 18.9%.

`CCOC(=O)c1ccccc1NC(=O)CN(c1cc(C(F)(F)F)ccc1Cl)S(C)(=O)=O` was tested. Which Potency did it give?
Its Potency is inconclusive [inhibitor, single point].

`Cc1cc2nc(-c3ccc[nH]c3=O)n(Cc3ccc(F)cc3)c2cc1C` was tested. Which Potency did it give?
The Potency was inconclusive [inhibitor, partial curve, poor fit].

With `O=[N+]([O-])c1ccc(N2CCN(S(=O)(=O)Cc3ccccc3)CC2)cc1N1CCOCC1` as the compound, how does the Potency read?
The Potency was inconclusive [inhibitor, single point].

How did the Potency turn out when `COc1cccc(CNC(=O)c2ccc(C3SCCS3)cc2)c1` was run?
The Potency was inconclusive [inhibitor, partial curve, poor fit].

Which Potency does the source give for `Cc1ccc(C)c(-n2c(-c3ccc4c(c3)OCO4)n[nH]c2=S)c1` here?
The Potency was inconclusive [inhibitor, single point].

`COc1cccc(N=CNc2cccc(OC)c2)c1` was tested. Which “activity change, negative = inhibition” value did it give?
Its value is inactive: -2.41%.

How did the Potency turn out when `C=C(C)n1c(=O)n(Cc2ccccc2C)c2ccccc21` was run?
The Potency was inconclusive [inhibitor, single point].

For `Fc1cccc(F)c1CSc1nc2ccccc2[nH]1`, which Potency is on record?
The Potency was inconclusive [inhibitor, single point].

How did the Potency turn out when `O=C(CSc1nc2cc(Cl)ccc2s1)N1CCCc2ccccc21` was run?
The Potency was inconclusive [inhibitor, single point].

How did the “activity change, negative = inhibition” value turn out when `O=[N+]([O-])c1ccn(-c2nc(-c3cccs3)cc(C(F)(F)F)n2)n1` was run?
The value was inactive: 26.2%.

Which Potency does the source give for `O=C1C=C(c2ccc(O)cc2)C[C@@H](c2ccc(Cl)cc2)C1` here?
The Potency was inconclusive [inhibitor, single point].

Which Potency does the source give for `COc1cc(-c2ccc3oc(-c4ccsc4)cc(=O)c3c2)cc(OC)c1OC` here?
Its Potency is inconclusive [inhibitor, single point].

`Cc1cc(C(=O)OCC(=O)N2CC(=O)Nc3ccccc32)c(C)n1-c1ccccc1` was tested. Which Potency did it give?
The Potency was inconclusive [inhibitor, single point].

How did the Potency turn out when `CCOC(=O)c1c(-c2ccc(C)o2)csc1NC(=S)NC(=O)c1ccccc1Br` was run?
The Potency was inconclusive [inhibitor, single point].

For `CC(C)NC(=S)N=Nc1c(O)[nH]c2ccc([N+](=O)[O-])cc12`, which Potency is on record?
Its Potency is inconclusive [inhibitor, partial curve, poor fit].

With `COc1ccccc1CN(C)C(=O)c1cc(-c2cc(OC)c(OC)c(OC)c2)nc2ccccc12` as the compound, how does the Potency read?
Its Potency is inconclusive [inhibitor, single point].

`Cc1ccc(S(=O)(=O)c2nc(-c3ccccc3)oc2NCCN2CCOCC2)cc1` was tested. Which “activity change, negative = inhibition” value did it give?
The value was inactive: -9.47%.

Which Potency does the source give for `Cc1ccc(-n2c(SCCN)nnc2-c2cccc(C)c2)cc1` here?
Its Potency is inconclusive [inhibitor, single point].

Which Potency does the source give for `C#Cc1ccc2c(c1)COc1c3ccccc3nn1-2` here?
Its Potency is inconclusive [inhibitor, single point].

With `O=C(NCCCN1CCOCC1)c1ccccc1N1C(=O)[C@@H]2Cc3c([nH]c4ccccc34)C(c3cccc(Cl)c3)N2C1=O` (stereo partly specified) as the compound, how does the Potency read?
The Potency was inconclusive [inhibitor, single point].

Which Potency does the source give for `Cc1ccccc1-n1c(=O)c2ccccc2n(Cc2ccc(F)cc2)c1=O` here?
The Potency was inconclusive [inhibitor, single point].

With `COc1ccc(CSCCNC(=S)Nc2ccccc2)cc1Cl` as the compound, how does the Potency read?
The Potency was inconclusive [inhibitor, single point].

With `CC1=C(C(N)=O)C(c2cccc(OCc3ccccc3)c2)n2nnnc2N1` (stereo unspecified) as the compound, how does the Potency read?
The Potency was inconclusive [inhibitor, single point].

`COc1ccc(N(C)C(=O)c2ccc3c(Cl)c4c(nc3c2)CCCC4)c(OC)c1` was tested. Which Potency did it give?
Its Potency is inconclusive [inhibitor, single point].

How did the Potency turn out when `O=C(CSc1ccccc1)N1CCN(S(=O)(=O)c2ccccc2F)CC1` was run?
The Potency was inconclusive [inhibitor, full curve].

For `O=S(=O)(c1ccc2c(c1)C(=NO)c1cc(S(=O)(=O)N3CCCCC3)ccc1-2)N1CCCCC1`, which Potency is on record?
The Potency was inconclusive [inhibitor, full curve, poor fit].

`CS(=O)(=O)N(CC(=O)Nc1ccccc1Sc1ccccc1)C1CCCCC1` was tested. Which Potency did it give?
The Potency was inconclusive [inhibitor, single point].

`NC(=NC(=O)c1ccccc1)N1CCN(C(c2ccccc2)c2ccccc2)CC1` was tested. Which Potency did it give?
The Potency was inconclusive [inhibitor, full curve, poor fit].

With `Cn1cccc1-c1nc2ccc(NC(=O)c3ccc([N+](=O)[O-])cc3)cc2[nH]1` as the compound, how does the “activity change, negative = inhibition” value read?
The value was inactive: -7.34%.

How did the Potency turn out when `CC(Sc1nnc(-c2ccccc2)c(-c2ccccc2)n1)C(=O)NCC1CCCO1` (stereo unspecified) was run?
Its Potency is inconclusive [inhibitor, partial curve, poor fit].

How did the Potency turn out when `COc1ccc(-c2n(Cc3ccccc3)c3ccccc3[n+]2Cc2ccccc2)cc1` was run?
Its Potency is inconclusive [inhibitor, partial curve, poor fit].

How did the Potency turn out when `COc1cccc(-c2csc(N3CCN(C(=O)C4CCCCC4)CC3)n2)c1` was run?
The Potency was inconclusive [inhibitor, single point].

For `O=[N+]([O-])c1c(C(Cl)Cl)nn(-c2ccccc2)c1N1CCOCC1`, which Potency is on record?
Its Potency is inconclusive [inhibitor, single point].

For `CCN(CC)CCNC(=O)c1ccc(NC(=O)c2cn(-c3ccccc3)nc2-c2cccs2)cc1`, which Potency is on record?
Its Potency is inconclusive [inhibitor, partial curve, poor fit].

For `O=C1OC[C@H]2CCCN2C(=O)[C@@H](CC(=O)N(CCO)Cc2ccccc2)C/C=C\CC[C@H]1Cc1ccc(F)cc1`, which Potency is on record?
The Potency was inconclusive [inhibitor, single point].

For `Cc1ccc(NC(=O)c2ccc(Cl)c(N3C(=O)C=CC3=O)c2)cc1`, which Potency is on record?
Its Potency is inconclusive [inhibitor, single point].

Which “activity change, negative = inhibition” value does the source give for `COc1ccc2oc(C(=O)OCC(=O)Nc3ccc(N4CCOCC4)cc3)c(C)c2c1` here?
Its value is inactive: 12.9%.

For `COC1OC2COC(c3ccccc3)OC2C(OC(=O)c2ccccc2)C1OC(=O)c1ccccc1` (stereo unspecified), which Potency is on record?
Its Potency is inconclusive [inhibitor, full curve].

How did the “activity change, negative = inhibition” value turn out when `COc1ccc(NC(=S)NC(=O)c2cncc(Br)c2)c(OC)c1` was run?
Its value is inactive: 15.9%.

Which Potency does the source give for `Fc1ccc(-c2nc3ccc(Cl)cn3c2Cc2ccccc2)cc1` here?
Its Potency is inconclusive [inhibitor, single point].

For `O=C(CNC(=S)N(Cc1ccccc1)Cc1ccccc1F)NCCc1ccc(Cl)cc1`, which Potency is on record?
Its Potency is active: 3.98 µM.

`CCOC(=O)c1c(CC(C)C)csc1NC(=O)COC(=O)c1ccc(O)cc1` was tested. Which Potency did it give?
Its Potency is inconclusive [inhibitor, full curve, poor fit].

For `Cc1ccc(C(=O)NNC(=S)NC(=O)c2ccccc2)cc1`, which Potency is on record?
Its Potency is inconclusive [inhibitor, single point].

For `O=C(Nc1ccc(F)cc1)c1cc(S(=O)(=O)N2CCCCC2)ccc1F`, which Potency is on record?
Its Potency is inconclusive [inhibitor, single point].
